The values that follow come from paper PMC12136788.

Some of the results follow.

The labels stand for the following.
T1: UNK ZnF1-3 (human, UniProt Q9C0B0 31-174)
T1 sequence: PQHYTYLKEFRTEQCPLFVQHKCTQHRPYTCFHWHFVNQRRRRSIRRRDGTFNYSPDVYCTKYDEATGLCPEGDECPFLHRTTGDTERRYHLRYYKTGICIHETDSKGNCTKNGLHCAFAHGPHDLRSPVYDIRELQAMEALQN

B1: chr12:53620312:53620313:+_ENSMUSG00000035133_ENSMUST00000110725|mus_mus|motif|central (ssRNA)
RNA: GGGAGUUCUACAGUCCGACGAUCAGGUUUAAUAGGUGGAGGCACUUUAUGGUUACGUUCAUGAUCGUGACAAUUUGGAGUGCGGUGAACAGGAUACUCAUUUCCUUCCAAAUCUAACCUGUAUCUGGAACGGUCACUAGGUGUCAACAGAGGAUUGAGCAUCA
B2: chr10:80930753:80930754:-_ENSMUSG00000034818_ENSMUST00000145375|mus_hu|FALSE|FALSE (ssRNA)
RNA: GGGAGUUCUACAGUCCGACGAUCGGUGGACAGGACUGUUGUCUGCUGUUGCAUGAGAGCCUGGGCGUAGGCACUGUAGGGGCUGAAGGGCAAUGUGAGGGACGGCGUCAGGAUGCCCAGCUGGCCCACCAUCUGCUGCAUGCGCAACAGAGGAUUGAGCAUCA
B3: chr11:74490848:74490849:-_ENSMUSG00000020745_ENSMUST00000021091|mus_hu|motif|central (ssRNA)
RNA: GGGAGUUCUACAGUCCGACGAUCACAGAUAGCAGAAAGAAAAACAGGAAUUAAUAAUCCAACAUAAAAUGACACUGUCAACGGUUCAGUUUAGUGCCCUAGUUCAAUUGAUUCAACUUCUGCCUUCUUAGGCCUGGUGUGACCCAACAGAGGAUUGAGCAUCA
B4: 32387816_32387936_4361_3pUTR_ENSMUSG00000053774_ENSMUST00000115151|mouse|control|control (ssRNA)
RNA: GGGAGUUCUACAGUCCGACGAUCACUGAACACGCUGUAUAAAUUCUAGUUUUCUUCCACAUUUAUAAAUGAGUAGAAGGCAUAUAUACUGUGUAGGGACGGUAUGAAGACUGAAGGAGGAAACACACACAGAGUACACACCACCAACAGAGGAUUGAGCAUCA
B5: chr9:66794652:66794653:+_ENSMUSG00000036781_ENSMUST00000040917|mus_hu|FALSE|FALSE (ssRNA)
RNA: GGGAGUUCUACAGUCCGACGAUCUUGUACUAGGCGUUUCUUUUUAUGUUUUUUCUUUUCCUCUUCCAAGGACGGAUGUAGUAAAUCUCUAGCCAACAGAGAGAUUAUGAAAGAGGCUCGUAUCCUUUUGGCUUCCCUUUUCAACAACAGAGGAUUGAGCAUCA
B6: chr7:135612270:135612271:-_ENSG00000105887_ENST00000393085|hu_mus|hu_hu_hu_mus_False|1_108 (ssRNA)
RNA: GGGAGUUCUACAGUCCGACGAUCGUUUCUGAGAUGUAUGUUAAAUAGUACUUCAGUGGAAAACAAAACUUAACCUUUUAUUAAUGCGUGUUGUACCAAAAGCAGACAUUUUAGCUUCAUUUAUUCAAAAAUAUUAAGAACAUUCAACAGAGGAUUGAGCAUCA
B7: chr1:163116895:163116896:-_ENSG00000143248_ENST00000313961|hu_mus|FALSE|FALSE (ssRNA)
RNA: GGGAGUUCUACAGUCCGACGAUCACAGACAGCUUUAUGUUAAACUGGAUAUUUUUGUGACUUAGACUGACAAUGACUUGGUAAAUCUUUAUUACAAAGCAGUCAGAAAGAACCAAAAAAAAGAAAAAAAAAAGAAAAAGAAAACAACAGAGGAUUGAGCAUCA
B8: chr1:163116895:163116896:-_ENSG00000143248_ENST00000313961|hu_hu|FALSE|FALSE (ssRNA)
RNA: GGGAGUUCUACAGUCCGACGAUCUCUUUGCCUUAGGCAGGAUUUUUCUGUGAUUCUGAUUGUGUCUGACUACAAGCUGAAGAUAUCUUAAUUAAUAACAGGGCAGGAAGAAUUGAGUGGGGAAAGAAGGCCUUCGGACAGUAGCAACAGAGGAUUGAGCAUCA
B9: chr12:48362563:48362564:+_ENSG00000134291_ENST00000256686|hu_hu|hu_hu_hu_mus_False|28_68 (ssRNA)
RNA: GGGAGUUCUACAGUCCGACGAUCUCCGUCAAGCCCUUCGAUAGACCCUUGCGGGGGAAACUGUAAUAAUUCUAACUGGGGAAGGAAAAGAAACGCCAAAAACUUUCUUUCUUUCUUGGGUGGGGUGAGGCGGGAGGGGGAGGUCAACAGAGGAUUGAGCAUCA
B10: chr1:84720644:84720645:-_ENSMUSG00000026219_ENSMUST00000027421|mus_mus|motif|central (ssRNA)
RNA: GGGAGUUCUACAGUCCGACGAUCAUGAAUUUUAGAUUGUAUCUCAAUUUGAAUGAACACAGGAUGACAAGGCCUGGGGCGGAUGAAACUGUACGUGUUGUAUUUAAAAAGUAAAACAAACAAACAAAAACCAAACACCAAACCCAACAGAGGAUUGAGCAUCA
B11: chr7:151048522:151048523:+_ENSG00000013374_ENST00000566856|hu_mus|hu_hu_hu_mus_True|38_68 (ssRNA)
RNA: GGGAGUUCUACAGUCCGACGAUCCUGUUUCUUAUUUAUUACGAUCUUGAUGUAAUUUUCUUGAAAUCCAAAGGUUUCAGCUAUUUGACACCUCAGGUCUCUGCCAGUGACAUGCAAGCGGGUCUCCAACAAGCUUUUCUUAUCCAACAGAGGAUUGAGCAUCA
B12: chr10:57939204:57939205:+_ENSMUSG00000003226_ENSMUST00000003310|mus_hu|FALSE|FALSE (ssRNA)
RNA: GGGAGUUCUACAGUCCGACGAUCAGAUGGCCUUAAUCCUUCACCCGGCAUGGGCUGAACAAAAUUAGUUUUCCCAAAUUCUAUAGUCUUAGAUUCUGCAGAUCUUGAAGCAUGAGCUGCAAUCGGAGGUUUUGUGAAAUAUCCCAACAGAGGAUUGAGCAUCA
B13: chrX:103217195:103217196:+_ENSMUSG00000031231_ENSMUST00000033582|mus_mus|FALSE|FALSE (ssRNA)
RNA: GGGAGUUCUACAGUCCGACGAUCAUAGUAUAAUGAGUACAUGAUUCUUUGACUUGGCAUUCACUUAUAAGUUGGUUUUAAACAAUUCCUUGAUUAUUGUACCAGCUGGCACGACUACUGAUCUCUCCAUUCCUUUGGGGUGACCAACAGAGGAUUGAGCAUCA
B14: chr10:116622662:116622663:+_ENSG00000151553_ENST00000369248|hu_hu|motif|central (ssRNA)
RNA: GGGAGUUCUACAGUCCGACGAUCGAUAGGUGUAAAACAAGCCUCUAUGCACAUGCCACACAAUGCGUAUAUGCAAACAUGCGGCAUAAAAUAACUUCCUAGAGGGGGUAGUGACAGUUCCCUUCAAGCCGGAACCUUUGAUAGCAACAGAGGAUUGAGCAUCA
B15: 3493990_3496593_1226_3pUTR_ENSMUSG00000024908_ENSMUST00000113997|mouse|control|control (ssRNA)
RNA: GGGAGUUCUACAGUCCGACGAUCCCCCACAGGUGGGUCCAAUAUACCCCAUGUAGUCUUCAUCACACUUUUCUUGGGUGGCUCGAGUAGGAGUUCAUGGAAAGAUCCAAGUCUUCCUCGGAUGGCUUCAAGAACACUCUUGUUCAACAGAGGAUUGAGCAUCA
B16: chr4:57314706:57314707:+_ENSG00000128050_ENST00000264221|hu_mus|hu_hu_hu_mus_True|1_1 (ssRNA)
RNA: GGGAGUUCUACAGUCCGACGAUCCAGAAUUUCAAAAAUAGCUUGUGUGGCAUGACUCAUGAUGUCCACUUCAGUCUGCCCUAUAACAAGGCCAGCAAAACAGAAUUUUGCAGCAAUGAGUUGCUCCUCAGACCACUGUGGGUCCAACAGAGGAUUGAGCAUCA
B17: 88537602_88537722_2479_CDS_ENSMUSG00000022387_ENSMUST00000109381|mouse|control|control (ssRNA)
RNA: GGGAGUUCUACAGUCCGACGAUCCCGUUUACUCCGUGAGCCGCUGGACUUCAUGGAGCAGGUCAGGUCCAACUUGUCCAGAAGUUCUCUCAGCUGCUCCUCCAAGCUCAUGUGGGCCCUGUUGGCUGGGUCCAGCAACCUGUCCAACAGAGGAUUGAGCAUCA
B18: 139358046_139358922_4529_CDS_ENSG00000148396_ENST00000313050|human|control|control (ssRNA)
RNA: GGGAGUUCUACAGUCCGACGAUCGUCGUCUUUGGCCAGGGGUCCCGGGAACGCCCGCAUCUCCUCCUGCUCAGACGUGUGCUGCAGCAAGGCCUCCAUGCUGUGGACCUCCACCAAGGCCGGCUGUCCUUCUGAAGGCAGAUUCAACAGAGGAUUGAGCAUCA
B19: chr19:16212804:16212805:+_ENSG00000167460_ENST00000300933|hu_mus|hu_hu_hu_mus_False|1_1 (ssRNA)
RNA: GGGAGUUCUACAGUCCGACGAUCAACAAUUCUGGAGUGAAGGAAAGAUGUAACAUGGAACAGCAUUAAAGCUCAGUCAGAAGGCACAUGGGCAACAAUGAUCACCCCAGCAUUCUCGCUUGGAAUGCUUAAAGACAGAUGUUUCAACAGAGGAUUGAGCAUCA
B20: chr16:94651144:94651145:+_ENSMUSG00000040785_ENSMUST00000117648|mus_hu|mus_mus_mus_hu_True|18_28 (ssRNA)
RNA: GGGAGUUCUACAGUCCGACGAUCAUUUUCUUGAAUCAAGUGGCGAAUAACAUAGUCCACUGCUUCAUUUAGAAAAUUUCUGCUAGAAAAACAGGUUGUAUAGUCUUCCGUGCUCAGAACCUUCCAAGAAAGCAAUUCUUUGAGCAACAGAGGAUUGAGCAUCA
B21: chr1:120503909:120503910:+_ENSMUSG00000064302_ENSMUST00000049404|mus_mus|motif|central (ssRNA)
RNA: GGGAGUUCUACAGUCCGACGAUCCUUUCUCCAUGUCAUGUAGAAGACAGGAGGGGGUCUUGUCCCAUCUGACCAUACUCGGAGAACAUAAGCAUAAAGAACACACAGCAAUACCCCAAACCACCCCCAAGUCUGUAUGGACUGCAACAGAGGAUUGAGCAUCA
B22: chr1:244855233:244855234:+_ENSG00000121644_ENST00000302550|hu_mus|hu_hu_hu_mus_True|58_58 (ssRNA)
RNA: GGGAGUUCUACAGUCCGACGAUCCAUCAGAUGGUAGGCGUUGCCCUUAUACUCUUUCCCCAGUUCUUCUACAAUUUUUUCUAUAUCAUCUUCUAGAAAGUCCGUACUUCCUAGAACAACAGCUUCUUUAAAUUUAAAUGUUUCCAACAGAGGAUUGAGCAUCA

This experiment concerns the target T1, UNK ZnF1-3. Briefly: nsRBNS (natural sequence RNA bind-n-seq); RBNS binding buffer (assumed for nsRBNS): 25 mM Tris pH 7.5, 150 mM KCl, 3 mM MgCl2, 0.01% Triton X-100, 500 ug/ml BSA, 20 U/ml SUPERase-In, 4 C; UNK is unkempt and MSI1 is Musashi-1; names of the RNAs are library labels; protein concentration not given here; high values mean tight binding.
The molecule B1 came in with a binding signal of 0.843 enrichment R.

For the molecule B2, the binding signal turned out to be 1.1 enrichment R.

The molecule B3 returned a binding signal of 1.01 enrichment R.

B4 displayed a binding signal of 1.51 enrichment R.

B5 displayed a binding signal of 0.634 enrichment R.

Consider B6, for which the binding signal is 0.663 enrichment R.

Take B7: the binding signal came out at 2.23 enrichment R.

Take B8: the binding signal was 1.6 enrichment R.

Molecule B9 displayed a binding signal of 1.62 enrichment R.

B10 yielded a binding signal of 1.7 enrichment R.

As for B11, the binding signal turned out to be 0.681 enrichment R.

Take B12: the binding signal is 1.07 enrichment R.

As to B13, the binding signal came to 0.635 enrichment R.

As to B14, the binding signal is 0.378 enrichment R.

Molecule B15 showed a binding signal of 0.788 enrichment R.

In turn, B16 showed a binding signal of 0.858 enrichment R.

The molecule B17 gave a binding signal of 0.471 enrichment R.

For the molecule B18, the binding signal is 0.435 enrichment R.

The molecule B19 displayed a binding signal of 1.34 enrichment R.

The molecule B20 yielded a binding signal of 0.575 enrichment R.

Consider B21, for which the binding signal was found to be 1.71 enrichment R.

B22 came in with a binding signal of 1.56 enrichment R.
